Results taken from the supplement of paper PMC10126150.
Sequences with one replicate were seen in a single cluster, so their values are uncertain.

Test system: ATP
Test: switch fluorescence ratio, 500 uM ATP over buffer (Cy3 cluster intensity, sum of 5 cycles each) (fold (ratio)); higher = stronger signal-on switching upon ATP binding; sequences stand for … in TCGTCGGCAGCGTCAGATGTGTATAAGAGACAGTTTTTTTTTTTTTTTTTTTTTTTTT…TC
Details: aptamer strand: ATP DNA aptamer (quencher-CACCTGGGGGAGTATTGCGGAGGAAGG + anchor), 100 nM annealed; ATP concentration: 500 uM; one replicate
In short: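 Cy3-labelled switching-strand clusters on a modified Illumina MiSeq flow-cell were annealed to 100 nM quencher-labelled ATP aptamer, imaged in selection buffer, then imaged after 15 min with 500 uM ATP at 22 °C. Five buffer/ATP cycles ran, with NaOH stripping and re-annealing between them. The fluorescence ratio is summed target-cycle over summed buffer-cycle Cy3 intensity per cluster, averaged per switch-domain sequence. Clusters outside 100-1000 RFU were excluded.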
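Also: ATP exposure 15 min at 22 °C before imaging.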

Which switch fluorescence ratio does the source give for TCTTTCGCGG here?
Its switch fluorescence ratio is 2.17.

How did the switch fluorescence ratio turn out when TCTTTCGGCT was run?
Its switch fluorescence ratio is 1.19.

How did the switch fluorescence ratio turn out when TCTTTCTGAG was run?
Its switch fluorescence ratio is 1.02.

Which switch fluorescence ratio does the source give for TCTTTGGGCA here?
The switch fluorescence ratio was 1.

For TCTTTGGTTA, which switch fluorescence ratio is on record?
Its switch fluorescence ratio is 1.06.

TCTTTGTGTC was tested. Which switch fluorescence ratio did it give?
Its switch fluorescence ratio is 0.974.

TCTTTTGAGA was tested. Which switch fluorescence ratio did it give?
Its switch fluorescence ratio is 1.02.

Which switch fluorescence ratio does the source give for TCTTTTGCGA here?
The switch fluorescence ratio was 1.1.

Which switch fluorescence ratio does the source give for TCTTTTGTTT here?
The switch fluorescence ratio was 1.31.

For TCTTTTTAGG, which switch fluorescence ratio is on record?
Its switch fluorescence ratio is 1.03.

TGAAAAGTAT was tested. Which switch fluorescence ratio did it give?
The switch fluorescence ratio was 1.18.

TGAAACATAA was tested. Which switch fluorescence ratio did it give?
Its switch fluorescence ratio is 0.999.

With TGAAACCTAA as the sequence, how does the switch fluorescence ratio read?
The switch fluorescence ratio was 1.12.

TGAAAGGCAG was tested. Which switch fluorescence ratio did it give?
The switch fluorescence ratio was 1.03.

For TGAAAGTACT, which switch fluorescence ratio is on record?
Its switch fluorescence ratio is 1.13.

Which switch fluorescence ratio does the source give for TGAAAGTCGA here?
The switch fluorescence ratio was 1.03.

For TGAAATATT, which switch fluorescence ratio is on record?
The switch fluorescence ratio was 1.07.

With TGAACAGCTT as the sequence, how does the switch fluorescence ratio read?
Its switch fluorescence ratio is 0.99.

How did the switch fluorescence ratio turn out when TGAACAGGGT was run?
The switch fluorescence ratio was 0.976.

TGAACATTCG was tested. Which switch fluorescence ratio did it give?
Its switch fluorescence ratio is 1.17.

TGAACCGATT was tested. Which switch fluorescence ratio did it give?
The switch fluorescence ratio was 0.985.

How did the switch fluorescence ratio turn out when TGAACCGGTA was run?
The switch fluorescence ratio was 1.01.

With TGAACCTGTG as the sequence, how does the switch fluorescence ratio read?
The switch fluorescence ratio was 0.984.

For TGAACGCGTG, which switch fluorescence ratio is on record?
Its switch fluorescence ratio is 0.991.

TGAACGGAGA was tested. Which switch fluorescence ratio did it give?
Its switch fluorescence ratio is 1.01.

With TGAACTGGGT as the sequence, how does the switch fluorescence ratio read?
Its switch fluorescence ratio is 0.977.

TGAAGAAGGG was tested. Which switch fluorescence ratio did it give?
Its switch fluorescence ratio is 0.999.

How did the switch fluorescence ratio turn out when TGAAGACCTT was run?
Its switch fluorescence ratio is 1.12.

How did the switch fluorescence ratio turn out when TGAAGAGAAA was run?
Its switch fluorescence ratio is 1.02.

TGAAGCCGG was tested. Which switch fluorescence ratio did it give?
The switch fluorescence ratio was 1.05.

Which switch fluorescence ratio does the source give for TGAAGGAGAC here?
Its switch fluorescence ratio is 1.04.

For TGAAGGATGT, which switch fluorescence ratio is on record?
Its switch fluorescence ratio is 1.04.

TGAAGTACCG was tested. Which switch fluorescence ratio did it give?
The switch fluorescence ratio was 1.04.

TGAATCATCA was tested. Which switch fluorescence ratio did it give?
The switch fluorescence ratio was 0.985.

For TGAATCCG, which switch fluorescence ratio is on record?
The switch fluorescence ratio was 1.02.

With TGAATCTATT as the sequence, how does the switch fluorescence ratio read?
Its switch fluorescence ratio is 0.992.

With TGAATGTCTC as the sequence, how does the switch fluorescence ratio read?
The switch fluorescence ratio was 0.974.

How did the switch fluorescence ratio turn out when TGAATGTTTT was run?
Its switch fluorescence ratio is 0.985.

Which switch fluorescence ratio does the source give for TGAATTAAGA here?
Its switch fluorescence ratio is 1.04.

With TGAATTTCAC as the sequence, how does the switch fluorescence ratio read?
Its switch fluorescence ratio is 0.966.

For TGACAAACCC, which switch fluorescence ratio is on record?
Its switch fluorescence ratio is 1.12.

Which switch fluorescence ratio does the source give for TGACAAACT here?
Its switch fluorescence ratio is 1.05.

For TGACAACTGG, which switch fluorescence ratio is on record?
The switch fluorescence ratio was 1.01.

With TGACAATCA as the sequence, how does the switch fluorescence ratio read?
Its switch fluorescence ratio is 0.994.

For TGACAGAAAG, which switch fluorescence ratio is on record?
Its switch fluorescence ratio is 1.02.

TGACATGCTG was tested. Which switch fluorescence ratio did it give?
Its switch fluorescence ratio is 1.04.

Which switch fluorescence ratio does the source give for TGACCCAAAG here?
The switch fluorescence ratio was 1.09.

TGACCCAGGT was tested. Which switch fluorescence ratio did it give?
The switch fluorescence ratio was 2.56.

Which switch fluorescence ratio does the source give for TGACCGAAGC here?
Its switch fluorescence ratio is 1.81.

With TGACCGATTA as the sequence, how does the switch fluorescence ratio read?
Its switch fluorescence ratio is 0.994.

For TGACCGGACT, which switch fluorescence ratio is on record?
Its switch fluorescence ratio is 1.17.

TGACGACCAG was tested. Which switch fluorescence ratio did it give?
The switch fluorescence ratio was 1.08.

For TGACGCTCTT, which switch fluorescence ratio is on record?
Its switch fluorescence ratio is 0.987.

TGACGCTGTC was tested. Which switch fluorescence ratio did it give?
Its switch fluorescence ratio is 1.37.

Which switch fluorescence ratio does the source give for TGACGGGATC here?
The switch fluorescence ratio was 1.36.

Which switch fluorescence ratio does the source give for TGACTATAGG here?
The switch fluorescence ratio was 1.07.

With TGACTATTTC as the sequence, how does the switch fluorescence ratio read?
The switch fluorescence ratio was 0.982.

Which switch fluorescence ratio does the source give for TGACTGAAGT here?
The switch fluorescence ratio was 0.94.

With TGACTGACTG as the sequence, how does the switch fluorescence ratio read?
Its switch fluorescence ratio is 0.983.

With TGACTGCAGA as the sequence, how does the switch fluorescence ratio read?
Its switch fluorescence ratio is 1.04.

With TGACTGCGTC as the sequence, how does the switch fluorescence ratio read?
The switch fluorescence ratio was 0.959.

How did the switch fluorescence ratio turn out when TGACTTAAAG was run?
Its switch fluorescence ratio is 1.

With TGACTTT as the sequence, how does the switch fluorescence ratio read?
The switch fluorescence ratio was 1.02.

For TGACTTTTGG, which switch fluorescence ratio is on record?
Its switch fluorescence ratio is 0.952.

TGAGAAAAGA was tested. Which switch fluorescence ratio did it give?
Its switch fluorescence ratio is 0.995.

How did the switch fluorescence ratio turn out when TGAGAAATCT was run?
The switch fluorescence ratio was 1.07.

With TGAGAACC as the sequence, how does the switch fluorescence ratio read?
The switch fluorescence ratio was 0.95.

TGAGAATGTA was tested. Which switch fluorescence ratio did it give?
The switch fluorescence ratio was 0.999.

With TGAGACAATC as the sequence, how does the switch fluorescence ratio read?
Its switch fluorescence ratio is 1.14.

With TGAGACAGGG as the sequence, how does the switch fluorescence ratio read?
The switch fluorescence ratio was 0.976.

Which switch fluorescence ratio does the source give for TGAGACTCAC here?
Its switch fluorescence ratio is 1.04.

TGAGAGAGA was tested. Which switch fluorescence ratio did it give?
Its switch fluorescence ratio is 0.99.

TGAGATAAGA was tested. Which switch fluorescence ratio did it give?
Its switch fluorescence ratio is 1.

For TGAGATCACC, which switch fluorescence ratio is on record?
The switch fluorescence ratio was 0.994.

For TGAGATTTTA, which switch fluorescence ratio is on record?
Its switch fluorescence ratio is 0.967.

Which switch fluorescence ratio does the source give for TGAGCAAACC here?
Its switch fluorescence ratio is 1.45.

With TGAGCACATT as the sequence, how does the switch fluorescence ratio read?
Its switch fluorescence ratio is 1.25.
